Some of the results follow. Values were computed here from the reads of four pooled replicates and scatter widely.
target: T1, Pho4 (S. cerevisiae) (UniProt P07270); test: relative binding free energy (BET-seq); higher = weaker binding; details: reference: library average
T1 sequence: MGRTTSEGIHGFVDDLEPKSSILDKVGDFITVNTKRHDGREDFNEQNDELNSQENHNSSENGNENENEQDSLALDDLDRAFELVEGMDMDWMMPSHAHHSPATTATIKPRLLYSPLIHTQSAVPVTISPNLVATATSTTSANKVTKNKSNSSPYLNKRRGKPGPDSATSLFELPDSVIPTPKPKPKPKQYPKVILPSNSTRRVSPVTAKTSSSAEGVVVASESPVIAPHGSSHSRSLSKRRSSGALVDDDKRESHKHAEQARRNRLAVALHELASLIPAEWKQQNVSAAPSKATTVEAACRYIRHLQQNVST

Relative binding free energy, 0.37 kcal/mol:
GAGTACACGTGTTCTT
GGTTTCACGTGTGAAT
GTGATCACGTGAATAG
GCTGTCACGTGAGATG

Relative binding free energy, -0.19 kcal/mol:
ATACGCACGTGTTGGG
ACCGACACGTGGGGGG
TGTGGCACGTGGCTGC
CCGGGCACGTGGAGGT

Relative binding free energy, 0.41 kcal/mol:
GTTTACACGTGAGGTT

Relative binding free energy, 0.6 kcal/mol:
GTCATCACGTGAGGAT

Relative binding free energy, 0.21 kcal/mol:
TGTTTCACGTGGTCTT

Relative binding free energy, -0.14 kcal/mol:
GTTAGCACGTGGGGAC
TAAGCCACGTGGGTAG

Relative binding free energy, -0.15 kcal/mol:
CTATGCACGTGTGTGT
GTAGGCACGTGGGAAA

Relative binding free energy, 0.11 kcal/mol:
ATGTACACGTGTGTGG
AGGAGCACGTGAGTGC

Relative binding free energy, -0.25 kcal/mol:
GGGAGCACGTGGCTTG

Relative binding free energy, -0.02 kcal/mol:
ATGGGCACGTGATTTC
GGCTGCACGTGGGGAT
TTAAGCACGTGATAAG
TGCATCACGTGGGGGG
AGGTGCACGTGTGGTA

Relative binding free energy, 0.1 kcal/mol:
ATTCACACGTGTTTAG
GGGTACACGTGGTTTT
CGTATCACGTGGTGTG
TCATTCACGTGGGGGC
GGGTGCACGTGTTAAA
TGGGACACGTGGACTA

Relative binding free energy, 0.39 kcal/mol:
AAATTCACGTGTCATG

Relative binding free energy, 0.15 kcal/mol:
AGTATCACGTGTTAAA
TGCGTCACGTGTAGAT
ATGATCACGTGTCGTT
GAGCTCACGTGGTGTG
TGAGTCACGTGTTGTA
ATGCTCACGTGCTTGT

Relative binding free energy, 0.24 kcal/mol:
CGGGACACGTGATGTA
TGAGTCACGTGTATTA

Relative binding free energy, 0.4 kcal/mol:
GCATTCACGTGTGTTA
TTAGTCACGTGAAATT

Relative binding free energy, 0.27 kcal/mol:
GTTCTCACGTGGCGGT
TTTCTCACGTGTGTCG

Relative binding free energy, 0.35 kcal/mol:
ATGTTCACGTGGTTCG

Relative binding free energy, 0.31 kcal/mol:
GTATTCACGTGAGAGA
GGTCGCACGTGAGGTT
GTCTACACGTGCTTGG

Relative binding free energy, 0.5 kcal/mol:
GCTGTCACGTGAAAGG

Relative binding free energy, 0 kcal/mol:
ACTGCCACGTGGAGGG
GTTTGCACGTGTCATG
GCTGACACGTGTTGTT
TGAGGCACGTGTTAAG
GTTTGCACGTGTGTCG

Relative binding free energy, 0.01 kcal/mol:
ATAATCACGTGGTGAA
ACTTTCACGTGGGGTA
CGTGGCACGTGGAATA
TCGTGCACGTGAAGTG
GTCGTCACGTGTAATG
CTTTGCACGTGTTAGT
CGGTGCACGTGTTTGA

Relative binding free energy, 0.19 kcal/mol:
CGTTTCACGTGGGAAA
CGATACACGTGTTTAT
GAATCCACGTGTGGTT
ATCGTCACGTGTATTT
ATTTTCACGTGCGTTC
CTGTTCACGTGCGTGA

Relative binding free energy, -0.07 kcal/mol:
CTGGGCACGTGGTGGC
ATGTACACGTGGTTGT

Relative binding free energy, 0.22 kcal/mol:
CGAGTCACGTGTGGTG
ATACTCACGTGTGTGA
CAGATCACGTGTGTTT
GTTATCACGTGGATGA
CAGTTCACGTGTGGAG

Relative binding free energy, 0.18 kcal/mol:
TGTATCACGTGCAGAT
TATAGCACGTGAGCGT
TTAAACACGTGAGGTG
TGGCACACGTGAGGAG
AATGTCACGTGCAAGG

Relative binding free energy, 0.17 kcal/mol:
TTGGCCACGTGAAGGG
CGGCTCACGTGGCGGG
GGTTTCACGTGGTACT
AAATTCACGTGGTATA

Relative binding free energy, -0.05 kcal/mol:
TCAGACACGTGGTGTG
TCTTACACGTGCGGGG
CGTATCACGTGGGTTT
CGGGACACGTGTTTGT
CAAGGCACGTGATGGT

Relative binding free energy, -0.03 kcal/mol:
AGGGTCACGTGGGGGA
TGATCCACGTGTAGGG

Relative binding free energy, 0.36 kcal/mol:
AAAGTCACGTGAATTT

Relative binding free energy, -0.23 kcal/mol:
CTGCGCACGTGTGGTG

Relative binding free energy, 0.26 kcal/mol:
ACGATCACGTGAGGTT

Relative binding free energy, -0.08 kcal/mol:
AATAGCACGTGCGTTT
TGGTACACGTGGGTCG
TATGGCACGTGATGTA
ATAAGCACGTGGTAGA
ACGGTCACGTGGGTTG
CGCAGCACGTGTTGTG

Relative binding free energy, 0.02 kcal/mol:
AGCAGCACGTGAGGGT
TTTAGCACGTGTAGCG
GGTAGCACGTGTGGTT
TGTGACACGTGGTAAT

Relative binding free energy, -0.13 kcal/mol:
TTATGCACGTGGGCCA
TGCGGCACGTGGCTTG
GGACACACGTGTTGGG

Relative binding free energy, 0.16 kcal/mol:
GGGTGCACGTGAGCTT
TGGTCCACGTGGTGAC

Relative binding free energy, -0.21 kcal/mol:
CGTGGCACGTGTTCGT

Relative binding free energy, -0.12 kcal/mol:
CTGGGCACGTGTGATA
GAGGGCACGTGGAGGG
GTGGGCACGTGGCGTA
CTGGTCACGTGGGCCG

Relative binding free energy, -0.16 kcal/mol:
GGGGGCACGTGTACCG
TCAGGCACGTGGGATA
TAGGGCACGTGTGTGA
CGGTGCACGTGTTTTA

Relative binding free energy, 0.34 kcal/mol:
TAATTCACGTGTGAGG
CTCGTCACGTGTGATT

Relative binding free energy, 0.04 kcal/mol:
AGAAACACGTGGTTTT
TGGATCACGTGGTTAA
CTGGTCACGTGGCGTG
GGTCGCACGTGTGTGG
GTAAGCACGTGTGTTA

Relative binding free energy, 0.33 kcal/mol:
GTATTCACGTGGACTT
AAAGTCACGTGATGGA

Relative binding free energy, -0.1 kcal/mol:
TAGGGCACGTGGTTGG
AGGGGCACGTGTTTAT
AGATCCACGTGGTGTG
AATGGCACGTGTGTTG
CGGAGCACGTGGTGGG

Relative binding free energy, 0.2 kcal/mol:
AGAATCACGTGTTGGC
ATGGGCACGTGAGGAT
GGATTCACGTGGTTAA

Relative binding free energy, -0.06 kcal/mol:
TTGAGCACGTGTTATG
AACTGCACGTGGGTTT
GTGGACACGTGGGCTG
TTGAACACGTGGGGCC
ACTTGCACGTGCTGTG
ACAGGCACGTGTGGTT
TTGGACACGTGATCGT

Relative binding free energy, -0.11 kcal/mol:
TAAGGCACGTGCATAG
ATAGACACGTGGGATG
TGTTGCACGTGTACGG

Relative binding free energy, 0.12 kcal/mol:
CAAGTCACGTGTTATG
TATTACACGTGTGAGG

Relative binding free energy, 0.29 kcal/mol:
TGTTTCACGTGCGGTC
TGGTTCACGTGGTGGA

Relative binding free energy, 0.53 kcal/mol:
AGTCTCACGTGAGGAA
ATCTTCACGTGAGATT

Relative binding free energy, -0.01 kcal/mol:
TTTAGCACGTGCTGAT
AGATCCACGTGGGTTA
ACTGGCACGTGTAGAG
TTCAGCACGTGGAGAG
GTAGGCACGTGGATGT
AGAGTCACGTGGGAGT
ATGAACACGTGTGTTA

Relative binding free energy, 0.32 kcal/mol:
TAATTCACGTGCGGTT

Relative binding free energy, 0.09 kcal/mol:
CAGGGCACGTGAGAGG
TTAATCACGTGCTGCT
GTCGACACGTGTTAGG
GGCGGCACGTGAGTGG
TGTGGCACGTGAGTCA
GTAGTCACGTGCTGTG

Relative binding free energy, 0.13 kcal/mol:
TTCATCACGTGTGCTG
GACATCACGTGTGTGT
ATGGTCACGTGCTTGC
CGTTACACGTGGATGG

Relative binding free energy, -0.04 kcal/mol:
GTATGCACGTGCGATT
TGGATCACGTGCGGGA
ATAAGCACGTGTTTGA
CGGTACACGTGGTAGA
GGCTGCACGTGTTGTG
AATTACACGTGTCGTG
AGGTACACGTGCTGTG
TTAAGCACGTGTTGCT

Relative binding free energy, -0.18 kcal/mol:
AGGGGCACGTGTTTGC

Relative binding free energy, -0.09 kcal/mol:
GGAGGCACGTGGGTAT
ATGATCACGTGGCTTT
TAGGGCACGTGGAAGC
AGCGCCACGTGGAGGG
AGTAACACGTGGTATT

Relative binding free energy, 0.38 kcal/mol:
GAGATCACGTGAGTGG

Relative binding free energy, 0.14 kcal/mol:
GATAGCACGTGGAAGT
CGTTTCACGTGGTCGG
GATGACACGTGGATTT
ATTCACACGTGGATGG
TCTATCACGTGGATTT

Relative binding free energy, -0.24 kcal/mol:
TTCGCCACGTGGTGTT

Relative binding free energy, 0.3 kcal/mol:
GGTCGCACGTGAATGT
TGCTTCACGTGCGAGG

Relative binding free energy, 0.03 kcal/mol:
TGGTCCACGTGTGTTG
CGGGACACGTGTTTTG
GGGGTCACGTGGCGCT

Relative binding free energy, 0.06 kcal/mol:
GATAACACGTGTATGT
GTGTGCACGTGTGAAC
AGGGGCACGTGTAGCG
AAGAACACGTGTAGGG

Relative binding free energy, -0.33 kcal/mol:
TCAGGCACGTGCGTGG

Relative binding free energy, 0.08 kcal/mol:
GAAGGCACGTGATAAG
TTTCACACGTGTGTTT
CGGGTCACGTGGATAG

Relative binding free energy, -0.26 kcal/mol:
AATAGCACGTGCGTGT
CTGGGCACGTGTAGAG

Relative binding free energy, 0.23 kcal/mol:
ACTTTCACGTGTAGGG
GATATCACGTGTCGGT

Relative binding free energy, 0.07 kcal/mol:
GTCGGCACGTGATGGC
ATCTACACGTGTAGTG
TGTTCCACGTGGGTGC
TCAGGCACGTGAAGGG
AGACGCACGTGTAGTT
GGTAACACGTGCGGGT
GTTAACACGTGTAGCG
TGCGGCACGTGACGGT

Relative binding free energy, 0.44 kcal/mol:
CGGTACACGTGAGTTT

Relative binding free energy, 0.28 kcal/mol:
GATTACACGTGATATT
GTCTACACGTGGGAAT
TTATTCACGTGATTTA
GGATTCACGTGTGGGC
TAACTCACGTGTAGTT

Relative binding free energy, -0.17 kcal/mol:
CGGGGCACGTGCGGGT
GGGGGCACGTGTTCAG
ATTGGCACGTGGGCTA
TGTGACACGTGCCGGG
TTTGACACGTGGTGCG
CGGGGCACGTGCGTGG
GGTAACACGTGGGCAT

Relative binding free energy, -0.28 kcal/mol:
TCGCGCACGTGGGGGG
TAAGGCACGTGGGCTG

Relative binding free energy, 0.05 kcal/mol:
TTACACACGTGTAGTT
CGTTGCACGTGTACGT
GGTGACACGTGGTTCG
